US20040185460

Tests used:
inactivated MKK4, P45985 = target: T1, inactivated MKK4, P45985
T1 chain: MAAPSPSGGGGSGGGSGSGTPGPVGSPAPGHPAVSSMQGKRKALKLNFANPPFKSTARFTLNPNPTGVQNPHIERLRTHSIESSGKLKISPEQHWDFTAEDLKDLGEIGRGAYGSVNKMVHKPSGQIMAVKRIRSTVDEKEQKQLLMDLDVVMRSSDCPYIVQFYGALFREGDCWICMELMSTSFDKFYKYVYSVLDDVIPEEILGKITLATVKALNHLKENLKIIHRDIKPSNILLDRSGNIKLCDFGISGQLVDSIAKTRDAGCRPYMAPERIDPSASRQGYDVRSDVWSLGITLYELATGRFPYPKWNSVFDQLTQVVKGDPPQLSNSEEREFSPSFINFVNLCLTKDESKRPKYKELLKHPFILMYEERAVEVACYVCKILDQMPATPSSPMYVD

[1] = target: myelin basic protein (UBI #13-104)

B1: baculoviral human GST-MLK7KD/LZ (protein)
chain: [… about 200 residues …]PANYVAPCRPAASPAPPPSRPSSPVHVAFERLELKELIGAGGFGQVYRATWQGQEVAVKAARQDPEQDAAAAAESVRREARLFAMLRHPNIIELRGVCLQQPHLCLVLEFARGGALNRALAAANAAPDPRAPGPRRARRIPPHVLVNWAVQIARGMLYLHEEAFVPILHRDLKSSNILLLEKIEHDDICNKTLKITDFGLAREWHRTTKMSTAGTYAWMAPEVIKSSLFSKGSDIWSYGVLLWELLTGEVPYRGIDGLAVAYGVAVNKLTLPIPSTCPEPFAKLMKECWQQDPHIRPSFALILEQLTAIEGAVMTEMPQESFHSMQDDWKLEIQQMFDELRTKEKELRSREEELTRAALQQKSQEELLKRREQQLAEREIDVLERELNILIFQLNQE
in vitro kinase cascade: phosphorylation/activation of MKK4, read as phosphorylated GST-JNK1β1(K55A) (phospho-specific JNK antibody, fluorescence) (inactivated MKK4, P45985): both GST-MLK7KD and GST-MLK7KD/LZ were able to phosphorylate MKK4 and as a consequence of this phosphorylation event, MKK4 was activated | phosphorylation of myelin basic protein (radioactive counts, Multiscreen TCA in-plate assay) [1]: Both GST-MLK7KD and GST-MLK7KD/LZ were able to phosphorylate myelin basic protein
